Counter-ions that a name gives are not always drawn. ± gives the standard error. Among all 1,300 compounds or so, about 130 (10%) showed an effect of 50% or more. The entries are a selection whose mix differs from that of the whole data set.
Test system: Trichoderma virens ATCC 9645
Assay: growth yield (OD600) with compound + IPBC relative to untreated control; higher = less growth inhibition
Details: compound concentration: 100 uM, IPBC concentration: 200 ng/ml
How it was run: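 A biocide at 200 ng ml^−1 was co-applied to some wells, and library compounds were present in all test wells at 100 μM final. The wells held 100 μl of Trichoderma virens ATCC 9645 spores at 15,000 spores ml^−1 in potato dextrose broth, grown at 30 °C in 96-well plates, with OD600 read at 40 h and 72 h. Results are relative growth against the control without either agent, averaged across duplicate screens.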

| Compound | growth yield (40 h) [%] | growth yield (72 h) [%] |
| --- | --- | --- |
| CN(C)CCn1nnnc1SCC1=C(C(=O)O)N2C(=O)[C@@H](NC(=O)Cc3csc(N)n3)[C@H]2SC1 [Cefotiam hydrochloride] + CCCCNC(=O)OCC#CI [3-iodo-2-propynyl butylcarbamate (IPBC)] | 96.4 ± 11 | 97.8 ± 7.5 |
| CC(=O)N[C@@H](CS)C(=O)O [Acetylcysteine] + CCCCNC(=O)OCC#CI [3-iodo-2-propynyl butylcarbamate (IPBC)] | 108 ± 4.5 | 102 ± 1.7 |
| CC(C)N(CCC(C(N)=O)(c1ccccc1)c1ccccn1)C(C)C (stereo unspecified) [Disopyramide] + CCCCNC(=O)OCC#CI [3-iodo-2-propynyl butylcarbamate (IPBC)] | 90.2 ± 9.8 | 96.1 ± 6.5 |
| CC(=O)O[C@H]1C[C@@]2(C)[C@@H](C[C@@H](O)[C@H]3[C@@]4(C)CC[C@@H](O)[C@@H](C)[C@@H]4CC[C@@]32C)/C1=C(\CCC=C(C)C)C(=O)O [Fusidic acid sodium salt] + CCCCNC(=O)OCC#CI [3-iodo-2-propynyl butylcarbamate (IPBC)] | 109.3 ± 0.64 | 117 ± 1.5 |
| C[C@H](N)[C@H](O)c1ccc(O)c(O)c1 [Levonordefrin] + CCCCNC(=O)OCC#CI [3-iodo-2-propynyl butylcarbamate (IPBC)] | 106.7 ± 0.32 | 99.5 ± 1.1 |
| CCN(CC)CCOC(=O)c1ccc(N)cc1 [Procaine hydrochloride] + CCCCNC(=O)OCC#CI [3-iodo-2-propynyl butylcarbamate (IPBC)] | 99.59 ± 0.16 | 99 ± 0.21 |
| Cc1c(C)c2c(c(C)c1O)CCC(C)(C(=O)O)O2 (stereo unspecified) [Trolox] + CCCCNC(=O)OCC#CI [3-iodo-2-propynyl butylcarbamate (IPBC)] | 82.8 ± 1.1 | 85.27 ± 0.32 |
| C[C@@H](O)[C@H]1C(=O)N2C(C(=O)O)=C(S[C@@H]3CN[C@H](C(=O)N(C)C)C3)[C@H](C)[C@H]12 [Meropenem] + CCCCNC(=O)OCC#CI [3-iodo-2-propynyl butylcarbamate (IPBC)] | 94.2 ± 1.8 | 94.4 ± 1.5 |
| CN1[C@@H]2CC[C@H]1C[C@@H](OC(=O)[C@H](CO)c1ccccc1)C2 [Hyoscyamine (L)] + CCCCNC(=O)OCC#CI [3-iodo-2-propynyl butylcarbamate (IPBC)] | 97.1 ± 5.9 | 100 ± 4.5 |
| CC(=O)O[C@H]1C[C@@H]2CC[C@@H]3[C@H](CC[C@@]4(C)[C@H]3C[C@H]([N+]3(C)CCCCC3)[C@@H]4OC(C)=O)[C@@]2(C)C[C@@H]1N1CCCCC1 [Vecuronium bromide] + CCCCNC(=O)OCC#CI [3-iodo-2-propynyl butylcarbamate (IPBC)] | 83.1 ± 1.1 | 88.2 ± 0.32 |
| C[C@]12C=CC(=O)C=C1CC[C@H]1[C@@H]3C[C@@H](O)[C@](O)(C(=O)CO)[C@@]3(C)C[C@H](O)[C@@]12F [Triamcinolone] + CCCCNC(=O)OCC#CI [3-iodo-2-propynyl butylcarbamate (IPBC)] | 98.3 ± 3 | 97.5 ± 1.9 |
| CCN(CC)C(=O)/C(C#N)=C/c1cc(O)c(O)c([N+](=O)[O-])c1 [Entacapone] + CCCCNC(=O)OCC#CI [3-iodo-2-propynyl butylcarbamate (IPBC)] | 88 ± 0.64 | 80.4 ± 1.4 |
| CNCCCC12CCC(c3ccccc31)c1ccccc12 [Maprotiline hydrochloride] + CCCCNC(=O)OCC#CI [3-iodo-2-propynyl butylcarbamate (IPBC)] | 65.92 ± 0.48 | 89.88 ± 0.32 |
| C[C@@H]1C[C@H]2[C@@H]3C[C@H](F)C4=CC(=O)C=C[C@]4(C)[C@@]3(Cl)[C@@H](O)C[C@]2(C)[C@H]1C(=O)COC(=O)C(C)(C)C [Clocortolone pivalate] + CCCCNC(=O)OCC#CI [3-iodo-2-propynyl butylcarbamate (IPBC)] | 101 | 93 ± 8.1 |
| NS(=O)(=O)c1cc(Cl)c(Cl)c(S(N)(=O)=O)c1 [Dichlorphenamide] + CCCCNC(=O)OCC#CI [3-iodo-2-propynyl butylcarbamate (IPBC)] | 95.3 ± 5.1 | 98.17 ± 0.21 |
| CCCCCNC(=N)N/N=C/c1c[nH]c2ccc(OC)cc12 [Tegaserod maleate] + CCCCNC(=O)OCC#CI [3-iodo-2-propynyl butylcarbamate (IPBC)] | 5.4 | 5.24 ± 0.21 |
| CN(C)CCCSC(=N)N [Dimaprit dihydrochloride] + CCCCNC(=O)OCC#CI [3-iodo-2-propynyl butylcarbamate (IPBC)] | 93.9 ± 6.5 | 95.8 ± 4.3 |
| Cc1onc(-c2c(F)cccc2Cl)c1C(=O)N[C@@H]1C(=O)N2[C@@H]1SC(C)(C)[C@@H]2C(=O)O [Flucloxacillin sodium] + CCCCNC(=O)OCC#CI [3-iodo-2-propynyl butylcarbamate (IPBC)] | 97.4 ± 12 | 96 ± 8.7 |
